From PubChem BioAssay AID624418 (National Center for Advancing Translational Sciences (NCATS), 2012)
Out of some 410,000 compounds screened, about 530 (0.13%) were called active. This list was built around the results that the source calls inconclusive (neither active nor inactive); the mix of calls is not that of the screen. Calls follow the shape of the dose curve; as a rule, active = well fitted inhibition curve with a large enough effect; inconclusive = small, poorly fitted or top-dose-only effect, or another doubt; inactive = no such curve, though single readings can be large or run the other way. A potency beside an inconclusive call is a rough fit, not a confirmed value.

assay: qHTS of GLP-1 Receptor Inverse Agonists: Cytotox Screen; conditions: HEK293 cAMP-luciferase reporter cells, luminescence, 24 h; activity change, negative = inhibition: at 38.3 µM (top of the series) unless noted
Summary of the method: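 Here, cytotoxicity is scored as loss of luminescence. The MLSMR collection was tested on cells seeded in medium containing 10% Nu serum, with a 24 hr compound exposure preceded by 12 hours of culture.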
% is scaled to controls: 0 for no effect and ±100 for the full control effect; potency is read from the fitted curve at half-maximal effect.

Question: With `O=[N+]([O-])c1cc2cccnc2c2ncccc12` as the molecule, how does the Potency read?
Answer: The Potency was inconclusive: 8.91 µM [inhibitor, partial curve, poor fit].

Question: For `COc1ccc(C(NC(=O)C2CCN(CCCOc3ccccc3)CC2)c2cccs2)cc1` (configuration not stated), which “activity change, negative = inhibition” value is on record?
Answer: The value was inactive: -10.9%.

Question: For `CCN(CC)S(=O)(=O)c1ccc(C(=O)NC(=S)N2CCCCC2C)cc1` (configuration not stated), which “activity change, negative = inhibition” value is on record?
Answer: Its value is inactive: -2.75%.

Question: Which Potency does the source give for `CCCCC1=CC2=CC(=O)C(C)(OC(=O)CC)C(=O)C2=CO1` (configuration not stated) here?
Answer: The Potency was inconclusive: 0.501 µM [inhibitor, full curve, poor fit].

Question: For `O=C(CSc1ccc(-c2ccc(F)cc2)nn1)N1CCOCC1`, which “activity change, negative = inhibition” value is on record?
Answer: Its value is inactive: -4.35%.

Question: Which Potency does the source give for `CCC(NC(=S)NCc1ccc(F)cc1)c1ccccc1` (configuration not stated) here?
Answer: Its Potency is inconclusive: 28.2 µM [inhibitor, single point].

Question: For `COc1cccc(-c2cc(C(=O)Nc3cccnc3)c3ccccc3n2)c1`, which Potency is on record?
Answer: The Potency was inconclusive: 8.91 µM [inhibitor, partial curve, poor fit].

Question: For `CCN(CC)CCOC(=O)c1ccc(NC(=O)CCCN2C(=O)/C(=C\c3cccs3)SC2=S)cc1`, which Potency is on record?
Answer: Its Potency is inconclusive: 15.8 µM [inhibitor, partial curve, poor fit].

Question: With `C/C(=N\NC(=O)c1ccc(C)cc1)c1c(C)[nH]n(-c2ccccc2)c1=O` as the molecule, how does the Potency read?
Answer: Its Potency is inconclusive: 1 µM [inhibitor, full curve, poor fit].

Question: With `Cc1cc(C)c2c3c(sc2n1)C(=O)N(c1ccccc1C)CC(=O)N3` as the molecule, how does the Potency read?
Answer: The Potency was inconclusive: 28.2 µM [inhibitor, single point].

Question: Which Potency does the source give for `CCOC(=O)c1ccc(N2C(=O)c3n[nH]c(-c4ccco4)c3C2c2cccc(O)c2)cc1` (configuration not stated) here?
Answer: Its Potency is inconclusive: 28.2 µM [inhibitor, single point].

Question: For `O=[N+]([O-])c1nn(-c2cccc(Cl)c2)n(O)c1=NCc1cccnc1`, which Potency is on record?
Answer: The Potency was inconclusive: 28.2 µM [inhibitor, single point].

Question: For `Cc1c(CC(=O)NCCCCCC(=O)O)c(=O)oc2cc3c(cc12)CCC(C)(C)O3`, which “activity change, negative = inhibition” value is on record?
Answer: The value was inactive: -5.07%.

Question: Which Potency does the source give for `S=C(Nc1ccc(Cl)cc1Cl)N1CCCC1` here?
Answer: The Potency was inconclusive: 2.51 µM [inhibitor, full curve, poor fit].

Question: For `N#Cc1ncc(-c2ccc3c(c2)OCCOCCOCCOCCO3)nc1C#N`, which Potency is on record?
Answer: Its Potency is inconclusive: 28.2 µM [inhibitor, single point].

Question: Which “activity change, negative = inhibition” value does the source give for `Cc1ccc(S(=O)(=O)N2CCCC(C(=O)NCc3ccc4c(c3)OCO4)C2)cc1` (configuration not stated) here?
Answer: The value was inactive: -4.11%.

Question: Which Potency does the source give for `O=C(CCCN1C(=O)/C(=C/c2ccccc2)SC1=S)N1CCOCC1` here?
Answer: Its Potency is inconclusive: 12.6 µM [inhibitor, single point].

Question: For `O=C(Nc1ccccc1N1CCN(C(=O)c2ccccc2)CC1)c1ccc(Br)o1`, which Potency is on record?
Answer: The Potency was inconclusive: 10 µM [inhibitor, partial curve, poor fit].

Question: Which Potency does the source give for `COC(=O)C1=C(C)N(Cc2ccccc2)C(=NCc2cccc(Cl)c2)N[C@H]1c1cccc(F)c1` here?
Answer: The Potency was inconclusive: 28.2 µM [inhibitor, single point].

Question: Which Potency does the source give for `CCn1c(-c2cccc(Br)c2)n[nH]c1=S` here?
Answer: The Potency was inconclusive: 15.8 µM [inhibitor, single point].

Question: For `CC(C)CC(N)c1csc(Nc2ccc(C(=O)N(C)Cc3ccccc3)cn2)n1` (configuration not stated), which Potency is on record?
Answer: The Potency was inconclusive: 10 µM [inhibitor, single point].

Question: With `CC1CCN(C(=O)C2COc3ccccc3C2)CC1` (configuration not stated) as the molecule, how does the “activity change, negative = inhibition” value read?
Answer: The value was inactive: 0.493%.

Question: With `CN(C)C(=O)c1cc([N+](=O)[O-])ccc1O` as the molecule, how does the Potency read?
Answer: Its Potency is inconclusive: 12.6 µM [inhibitor, partial curve, poor fit].

Question: For `CCN1CCN(CCc2nc3cc([N+](=O)[O-])ccc3n2C)CC1`, which Potency is on record?
Answer: Its Potency is inconclusive: 28.2 µM [inhibitor, single point].

Question: Which Potency does the source give for `Cn1cncc1C#Cc1ccc2cc(CCCO)oc(=O)c2c1` here?
Answer: The Potency was inconclusive: 28.2 µM [inhibitor, single point].

Question: Which “activity change, negative = inhibition” value does the source give for `COc1ccc(C(=O)C2CCCN(Cc3cc(C)c(O)c(C)c3)C2)c(OC)c1` (configuration not stated) here?
Answer: Its value is inactive: -0.449%.

Question: Which “activity change, negative = inhibition” value does the source give for `Cc1ccc(CN2CCCn3nc(C(=O)NCCc4ccccc4Cl)cc3C2=O)cc1` here?
Answer: The value was inactive: -1.15%.

Question: For `Cc1ccc(C(=O)Nc2cccc(C(=O)OCc3cc(=O)n4nc(C5CC5)sc4n3)c2)cc1`, which “activity change, negative = inhibition” value is on record?
Answer: Its value is inactive: -5.05%.

Question: For `Cc1c(CCOC(=O)C2C3CC4CC(C3)CC2C4)sc[n+]1CC(=O)c1ccc(Br)cc1` (configuration not stated), which Potency is on record?
Answer: The Potency was inconclusive: 28.2 µM [inhibitor, single point].

Question: Which Potency does the source give for `Cc1ccnc(NC(=O)CSc2cc(=O)n(C)c3ccccc23)c1` here?
Answer: Its Potency is inconclusive: 5.62 µM [inhibitor, full curve, poor fit].

Question: With `CCCOc1ccc(C2CC(=O)Nc3c2c(=O)n(C)c(=O)n3C)cc1OC` (configuration not stated) as the molecule, how does the “activity change, negative = inhibition” value read?
Answer: Its value is inactive: -0.0971%.

Question: For `O=C(c1cc2cc(Cl)ccc2[nH]1)N1CCN(Cc2ccc3c(c2)OCO3)CC1`, which “activity change, negative = inhibition” value is on record?
Answer: The value was inactive: -17.5%.

Question: Which “activity change, negative = inhibition” value does the source give for `O=C(c1cc(C2CC2)nn1-c1ccccc1)N1CCN(Cc2ccc(Cl)cc2)CC1` here?
Answer: Its value is inactive: 3.57%.

Question: For `Cc1c(S(=O)(=O)c2ccccn2)c(N)n(Cc2ccccc2)c1C`, which Potency is on record?
Answer: The Potency was inconclusive: 3.55 µM [inhibitor, full curve].

Question: Which activity change, negative = inhibition does the source give for `COc1ccc(C(C)(C)C)cc1NC(=O)CNc1cccc2ccccc12` here?
Answer: The activity change, negative = inhibition was inactive: 10.5% [at 1.53 µM].

Question: For `Cc1cc(-c2nnc3n2N=C(c2ccccc2)CS3)n[nH]1`, which “activity change, negative = inhibition” value is on record?
Answer: Its value is inactive: -3.31%.

Question: For `COc1ccccc1OCC(=O)NNC(=O)Nc1ccccc1`, which Potency is on record?
Answer: Its Potency is inconclusive: 10 µM [inhibitor, single point].

Question: With `Cc1[nH]c2ccccc2c1C(=O)CN1C(=O)NC(C)(c2ccc(Cl)cc2Cl)C1=O` (configuration not stated) as the molecule, how does the Potency read?
Answer: Its Potency is inconclusive: 28.2 µM [inhibitor, single point].

Question: For `Fc1cccc(F)c1-n1c(CN2CCCCC2)csc1=S`, which Potency is on record?
Answer: Its Potency is inconclusive: 5.62 µM [inhibitor, full curve, poor fit].

Question: For `O=C1NC(=S)/C(=C\c2ccc(-c3ccccc3Cl)o2)S1`, which Potency is on record?
Answer: Its Potency is inconclusive: 10 µM [inhibitor, partial curve, poor fit].

Question: For `COc1cc(OC)cc(C(=O)O/N=C(\N)c2ccccn2)c1`, which Potency is on record?
Answer: The Potency was inconclusive: 10 µM [inhibitor, partial curve, poor fit].

Question: Which Potency does the source give for `COc1ccccc1C(=O)N1CCN(c2cccc(C(F)(F)F)c2)CC1` here?
Answer: The Potency was inconclusive: 6.31 µM [inhibitor, partial curve, poor fit].

Question: Which Potency does the source give for `CC1=CC(C)(C)N=C(Nc2ccc(C)cc2)S1` here?
Answer: The Potency was inconclusive: 7.08 µM [inhibitor, partial curve].

Question: With `CCOC(=O)c1ccccc1NC1c2ccccc2C(=O)N1c1cc(C)ccn1` (configuration not stated) as the molecule, how does the “activity change, negative = inhibition” value read?
Answer: Its value is inactive: 15.3%.

Question: With `COc1ccc(-c2cc(-c3ccccc3)c(C#N)c(S(C)=O)n2)cc1` (configuration not stated) as the molecule, how does the Potency read?
Answer: The Potency was inconclusive: 22.4 µM [inhibitor, single point].

Question: Which Potency does the source give for `COc1ccccc1NC(=O)Cn1nc(-c2ccc(Cl)cc2)c2ccccc2c1=O` here?
Answer: The Potency was inconclusive: 12.6 µM [inhibitor, single point].

Question: For `Cc1ccc(C)c(N2CCN(S(=O)(=O)c3c(C)noc3/C=C/N(C)C)CC2)c1`, which Potency is on record?
Answer: The Potency was inconclusive: 7.94 µM [inhibitor, partial curve, poor fit].

Question: With `NC1=NN(c2ccccc2)C(=O)C1` as the molecule, how does the Potency read?
Answer: Its Potency is inconclusive: 11.2 µM [inhibitor, partial curve].

Question: Which Potency does the source give for `CCN1CCCC1CN(Cc1cc2c(C)cc(C)cc2[nH]c1=O)C(=O)NC1CCCCC1` (configuration not stated) here?
Answer: Its Potency is inconclusive: 10 µM [inhibitor, single point].

Question: With `C/C(=N/NC(=O)COc1ccc(C(C)(C)C)cc1)c1ccc(N2CCOCC2)cc1` as the molecule, how does the “activity change, negative = inhibition” value read?
Answer: Its value is inactive: 7.4%.

Question: For `COc1ccc(S(=O)(=O)Cc2ccc(C(=O)O)o2)cc1`, which Potency is on record?
Answer: The Potency was inconclusive: 11.2 µM [inhibitor, single point].

Question: With `COc1ccc2cc3[n+](cc2c1OC)CCc1cc2c(cc1-3)OCO2` as the molecule, how does the Potency read?
Answer: The Potency was inconclusive: 20 µM [inhibitor, single point].

Question: For `S=c1[nH]nc(-c2ccncc2)n1/N=C/c1cccc(Cl)c1`, which “activity change, negative = inhibition” value is on record?
Answer: The value was inactive: -1.77%.

Question: With `Cc1cccc(-c2nc(CN3CCCC(C(=O)NCCc4ccc(Cl)cc4)C3)c(C)o2)c1` (configuration not stated) as the molecule, how does the Potency read?
Answer: The Potency was inconclusive: 20 µM [inhibitor, single point].

Question: Which Potency does the source give for `COc1ccc(OCCNc2cc(N3CCOCC3)ccc2[N+](=O)[O-])cc1` here?
Answer: Its Potency is inconclusive: 28.2 µM [inhibitor, single point].

Question: With `COC(=O)C(=Cc1ccccc1[N+](=O)[O-])C(=O)OC` as the molecule, how does the Potency read?
Answer: Its Potency is inconclusive: 10 µM [inhibitor, partial curve, poor fit].

Question: Which “activity change, negative = inhibition” value does the source give for `COc1ccccc1C(O)Cc1nc2ccccc2n1C` (configuration not stated) here?
Answer: Its value is inactive: -0.992%.

Question: With `COc1ccccc1NS(=O)(=O)c1cccc(-n2c(O)c(C=Nc3ccccc3C(=O)O)c3ccccc3c2=O)c1` as the molecule, how does the Potency read?
Answer: Its Potency is inconclusive: 15.8 µM [inhibitor, partial curve, poor fit].

Question: Which Potency does the source give for `CCCCc1c(-c2ccccc2OC)ncn1Cc1cccc(-c2ccccc2)c1` here?
Answer: Its Potency is inconclusive: 14.1 µM [inhibitor, single point].

Question: Which Potency does the source give for `c1ccc2c(Nc3nc(N4CCOCC4)c4ccccc4n3)cccc2c1` here?
Answer: Its Potency is inconclusive: 10 µM [inhibitor, single point].

Question: For `Cc1nnc(N/N=C/c2cc(C)n(-c3ccc(F)cc3)c2C)n1N`, which Potency is on record?
Answer: Its Potency is inconclusive: 12.6 µM [inhibitor, single point].

Question: For `CCn1cc([N+](=O)[O-])c(C(=O)N2N=C(c3ccc4ccccc4c3)CC2c2ccccc2O)n1` (configuration not stated), which Potency is on record?
Answer: The Potency was inconclusive: 14.1 µM [inhibitor, single point].

Question: For `CCOc1ccc(Nc2nn(-c3ccc(OC(F)(F)F)cc3)nc2C(C)=O)cc1`, which “activity change, negative = inhibition” value is on record?
Answer: Its value is inactive: -6.27%.

Question: Which Potency does the source give for `CC(=O)Oc1c(C)cc(Cl)cc1C(=O)Nc1ccc([N+](=O)[O-])cc1Cl` here?
Answer: Its Potency is inconclusive: 0.708 µM [inhibitor, full curve, poor fit].

Question: With `Cc1c(C(=O)O/N=C(\N)c2ccccn2)cccc1[N+](=O)[O-]` as the molecule, how does the Potency read?
Answer: Its Potency is inconclusive: 10 µM [inhibitor, single point].

Question: For `COCCCn1c(=S)[nH]c2ccc(N3CCOCC3)cc2c1=O`, which “activity change, negative = inhibition” value is on record?
Answer: The value was inactive: 18.1%.

Question: With `Cc1cccc(CN2CCC(Oc3ccc(C(=O)N4CCCC4)cc3)CC2)n1` as the molecule, how does the Potency read?
Answer: The Potency was inconclusive: 28.2 µM [inhibitor, single point].
